# The supplement of paper PMC8728848
# This is one part of the list.
# B1: MVL (Microcystis viridis), Q9RHG4 (protein)
# chain: MASYKVNIPAGPLWSNAEAQQVGPKIAAAHQGNFTGQWTTVVESAMSVVEVELQVENTGIHEFKTDVLAGPLWSNDEAQKLGPQIAASYGAEFTGQWRTIVEGVMSVIQIKYTF
# Columns and labels:
# Assay in all cases: glycan array binding signal (z-score within array); higher = stronger binding
# Conditions in all cases: glycan notation: IUPAC condensed, linker removed
# [1] = target: Gal3S(b1-4)GlcNAc
# Summary of the method: (§1)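 Glycan array data were curated from 3228 arrays in the Consortium for Functional Glycomics database and kept only where the protein sequence was available. Glycan names were converted to IUPAC-condensed notation, and columns mapping to the same glycan were averaged. The binding signal is a within-array Z-score, averaged across arrays of the same protein sequence at different concentrations or buffers and across linkers. Negative Z-scores can be read as non-binding.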
# [2] = target: Gal3S(b1-4)GlcNAc6S
# Summary of the method: as §1
# [3] = target: Gal3S(b1-4)[Fuc(a1-3)]Glc
# Summary of the method: as §1
# [4] = target: Gal3S4S(b1-4)GlcNAc
# Summary of the method: as §1
# [5] = target: Gal3S6S(b1-4)GlcNAc
# Summary of the method: as §1
# [6] = target: Gal3S6S(b1-4)GlcNAc6S
# Summary of the method: as §1
# [7] = target: Gal4S(b1-4)GlcNAc
# Summary of the method: as §1
# [8] = target: Gal4S6S(b1-4)GlcNAc
# Summary of the method: as §1
# [9] = target: Gal6S(b1-4)Glc
# Summary of the method: as §1
# [10] = target: Gal6S(b1-4)Glc6S
# Summary of the method: as §1
# [11] = target: Gal6S(b1-4)GlcNAc
# Summary of the method: as §1
# [12] = target: Gal6S(b1-4)GlcNAc6S
# Summary of the method: as §1
# [13] = target: GalNAc(a1-3)Gal
# Summary of the method: as §1
# [14] = target: GalNAc(a1-3)GalNAc
# Summary of the method: as §1
# [15] = target: GalNAc(b1-3)Gal
# Summary of the method: as §1
# [16] = target: GalNAc(b1-3)Gal(a1-4)Gal(b1-4)GlcNAc
# Summary of the method: as §1
# [17] = target: GalNAc(b1-3)Gal(a1-4)Gal(b1-4)GlcNAc(b1-3)Gal(b1-4)Glc
# Summary of the method: as §1
# [18] = target: GalNAc(b1-3)GalNAc
# Summary of the method: as §1
# [19] = target: GalNAc(b1-4)GlcNAc
# Summary of the method: as §1
# [20] = target: GalNAc(b1-4)GlcNAc(b1-2)Man(a1-3)[GalNAc(b1-4)GlcNAc(b1-2)Man(a1-6)]Man(b1-4)GlcNAc(b1-4)GlcNAc
# Summary of the method: as §1
# [21] = target: Glc(a1-4)Glc
# Summary of the method: as §1
# [22] = target: Glc(a1-6)Glc(a1-6)Glc
# Summary of the method: as §1
# [23] = target: Glc(b1-4)Glc
# Summary of the method: as §1
# [24] = target: Glc(b1-6)Glc
# Summary of the method: as §1
# [25] = target: GlcA(b1-3)Gal
# Summary of the method: as §1
# [26] = target: GlcA(b1-3)GlcNAc
# Summary of the method: as §1
# [27] = target: GlcA(b1-6)Gal
# Summary of the method: as §1
# [28] = target: GlcNAc(a1-3)Gal(b1-4)GlcNAc
# Summary of the method: as §1
# [29] = target: GlcNAc(a1-4)Gal(b1-3)GlcNAc
# Summary of the method: as §1
# [30] = target: GlcNAc(a1-4)Gal(b1-4)GalNAc
# Summary of the method: as §1
# [31] = target: GlcNAc(a1-4)Gal(b1-4)GlcNAc
# Summary of the method: as §1
# [32] = target: GlcNAc(a1-4)Gal(b1-4)GlcNAc(b1-3)Gal(b1-4)Glc
# Summary of the method: as §1
# [33] = target: GlcNAc(a1-4)Gal(b1-4)GlcNAc(b1-3)Gal(b1-4)GlcNAc
# Summary of the method: as §1
# [34] = target: GlcNAc(a1-4)Gal(b1-4)GlcNAc(b1-3)Gal(b1-4)GlcNAc(b1-3)Gal(b1-4)GlcNAc
# Summary of the method: as §1
# [35] = target: GlcNAc(a1-4)Gal(b1-4)GlcNAc(b1-3)Gal(b1-4)[Fuc(a1-3)]GlcNAc(b1-3)Gal(b1-4)[Fuc(a1-3)]GlcNAc
# Summary of the method: as §1
# [36] = target: GlcNAc(a1-6)Gal(b1-4)GlcNAc
# Summary of the method: as §1
# [37] = target: GlcNAc(b1-2)Gal(b1-3)GalNAc
# Summary of the method: as §1
# [38] = target: GlcNAc(b1-2)Man(a1-3)[GlcNAc(b1-2)Man(a1-6)]Man(b1-4)GlcNAc(b1-4)GlcNAc
# Summary of the method: as §1
# [39] = target: GlcNAc(b1-2)Man(a1-3)[GlcNAc(b1-2)Man(a1-6)]Man(b1-4)GlcNAc(b1-4)[Fuc(a1-6)]GlcNAc
# Summary of the method: as §1
# [40] = target: GlcNAc(b1-3)Gal
# Summary of the method: as §1
# [41] = target: GlcNAc(b1-3)Gal(b1-3)GalNAc
# Summary of the method: as §1
# [42] = target: GlcNAc(b1-3)Gal(b1-4)Glc
# Summary of the method: as §1
# [43] = target: GlcNAc(b1-3)Gal(b1-4)GlcNAc
# Summary of the method: as §1
# [44] = target: GlcNAc(b1-3)Gal(b1-4)GlcNAc(b1-3)Gal(b1-4)GlcNAc
# Summary of the method: as §1
# [45] = target: GlcNAc(b1-3)GalNAc
# Summary of the method: as §1
binder,measurement,setting,value
B1,glycan array binding signal (z-score),[1],-0.245
same,glycan array binding signal (z-score),[2],-0.238
same,glycan array binding signal (z-score),[3],-0.232
same,glycan array binding signal (z-score),[4],-0.243
same,glycan array binding signal (z-score),[5],-0.226
same,glycan array binding signal (z-score),[6],-0.248
same,glycan array binding signal (z-score),[7],-0.223
same,glycan array binding signal (z-score),[8],-0.238
same,glycan array binding signal (z-score),[9],-0.237
same,glycan array binding signal (z-score),[10],-0.224
same,glycan array binding signal (z-score),[11],-0.229
same,glycan array binding signal (z-score),[12],-0.228
same,glycan array binding signal (z-score),[13],-0.231
same,glycan array binding signal (z-score),[14],-0.243
same,glycan array binding signal (z-score),[15],-0.241
same,glycan array binding signal (z-score),[16],-0.243
same,glycan array binding signal (z-score),[17],-0.245
same,glycan array binding signal (z-score),[18],-0.242
same,glycan array binding signal (z-score),[19],-0.14
same,glycan array binding signal (z-score),[20],0.004
same,glycan array binding signal (z-score),[21],-0.219
same,glycan array binding signal (z-score),[22],-0.228
same,glycan array binding signal (z-score),[23],-0.238
same,glycan array binding signal (z-score),[24],-0.218
same,glycan array binding signal (z-score),[25],-0.233
same,glycan array binding signal (z-score),[26],-0.239
same,glycan array binding signal (z-score),[27],-0.246
same,glycan array binding signal (z-score),[28],-0.253
same,glycan array binding signal (z-score),[29],-0.209
same,glycan array binding signal (z-score),[30],-0.182
same,glycan array binding signal (z-score),[31],-0.218
same,glycan array binding signal (z-score),[32],-0.236
same,glycan array binding signal (z-score),[33],-0.172
same,glycan array binding signal (z-score),[34],-0.228
same,glycan array binding signal (z-score),[35],0.006
same,glycan array binding signal (z-score),[36],-0.223
same,glycan array binding signal (z-score),[37],-0.243
same,glycan array binding signal (z-score),[38],1.66
same,glycan array binding signal (z-score),[39],1.05
same,glycan array binding signal (z-score),[40],-0.241
same,glycan array binding signal (z-score),[41],-0.239
same,glycan array binding signal (z-score),[42],-0.231
same,glycan array binding signal (z-score),[43],-0.24
same,glycan array binding signal (z-score),[44],-0.246
same,glycan array binding signal (z-score),[45],-0.231
